This is an account of results in PMC12040169 (PLOS Biology, 2025).

Each structure is given as a SMILES string. Read-outs that look alike come from different tables or passages of the source. The list shows a part of the results.

For this test, the system named is T1, C. trachomatis L2/434/Bu expressing GFP (CTL2-GFP).
T1 construct: L2/434/Bu GFP intracellular growth in HeLa cells
On the set-up: species or system HeLa; C. trachomatis total inclusion area by high-content imaging, normalised to DMSO. A digest of the protocol:
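Following bulk GFP and resorufin fluorescence reads, infected cells were fixed, Hoechst-stained and imaged on a high-content platform. Inclusion total area and number per well served as growth proxies; nuclei counts indicated host viability. MICs were derived as for the fluorescence assay.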

Setting [1] is: total inclusion area; 28.5 h, 10 µM; inhibitor.

With `COC(=O)c1c(NC(=S)NCc2ccccn2)sc2c1CCC2` [CBK267090], the “% of control remaining” value under setting [1] turned out to be 100.325.
For `CCn1cc(C(=O)N2CCN(Cc3ccco3)C[C@@H]2C(C)C)cn1` [CBK284307], under setting [1], the “% of control remaining” value came out at 59.3155.
The same measure, in the same setting: to `Cc1ccc2[nH]c(=O)c(CNc3ccc(-c4nc5cc(C)ccc5[nH]4)cc3)cc2c1` [CBK286161] belongs 70.6432; to `O=C(NCc1ccc(-c2csnn2)cc1)c1ccco1` [CBK149289], 97.0169; to `COc1ccc(N(CC(=O)NC2CC3CCC2C3)S(=O)(=O)c2ccc(C)cc2)cc1` (centres unmarked) [CBK266574], 106.605.
`O=C(NCc1cccs1)C1(Cc2ccccc2-c2ccc(F)c(F)c2)CCOCC1` [CBK286417]: the “% of control remaining” value under setting [1] came out at 79.8837.
Take `O=c1c2c3nc4ccccc4nc3n(CCc3ccccc3)c2ncn1Cc1ccco1` [CBK269502]: the “% of control remaining” value under setting [1] turned out to be 68.8332.
Take `COc1ccc(N2C(=O)c3ccc(C(=O)Nc4ccccc4C(=O)O)cc3C2=O)cc1O` [CBK262833]: under setting [1], the “% of control remaining” value turned out to be 101.863.
Still for that read-out and setting: the result for `Cc1cccc(NC(=O)NCCCn2c(-c3ccncc3)nc3cccnc32)c1` [CBK288580] reads 103.75; that for `Cc1ccc(O)c(CN[C@@H]2CCC[C@H]2Cc2cc(C)no2)c1` [CBK284936], 128.516; that for `Cc1c(C)n(Cc2ccccc2)c2ccc(C(=O)OCCCN(C)C)cc12` [CBK087693], 78.4221.
The same measure, in the same setting: to `c1cnc2[nH]c(C3CCOCC3)c(CN3CCSCC3)c2c1` [CBK284688] belongs 68.2429; to `Oc1cc2cccnc2nc1-c1ccc2c(c1)CCO2` [CBK073698], 85.3351.
As to `O=C(NCCn1nc(-c2cccs2)oc1=O)C1CCCCC1` [CBK282343], the “% of control remaining” value under setting [1] was determined as 59.4042.
As to `CC(=O)N1CC[C@H]2NC(=O)CNC(=O)C3(CCCC[C@H]2C1)CCNCC3` [CBK292142], the “% of control remaining” value under setting [1] came out at 98.3055.
In the case of `O=C(c1ccc[nH]1)N1Cc2ccccc2C1` [CBK200319], the “% of control remaining” value under setting [1] turned out to be 113.845.
Still for that read-out and setting: to `O=C(O)CCN1CCC2(CCN(C(=O)c3cc(F)c(F)cc3F)C2)C1` (centres unmarked) [CBK137123] belongs 83.9206.
Same read-out and setting: the result for `CC1OCCC12CN(c1cc(CO)c(F)cn1)CCO2` (centres unmarked) [CBK304775] reads 105.835; that for `CC(=O)c1ccc(-c2nccnc2N[C@@H]2CCN(Cc3ccccc3)C2)s1` [CBK036981], 61.0962; that for `O=C(O)c1ccc(Cl)c(S(=O)(=O)Nc2ccc(I)cc2)c1` [CBK296132], 82.9952.
Regarding `Cc1ncc(C(O)c2ccc(Cl)cc2)c2c1OC(C)(C)OC2` (centres unmarked) [CBK010749], the “% of control remaining” value under setting [1] was found to be 80.7542.
For `COc1ccc([N+](=O)[O-])cc1NC(=O)c1cc(-c2cccnc2)nc2ccc(C)cc12` [CBK267757], the “% of control remaining” value under setting [1] amounted to 100.63.
For `N#C/C(=C\C=C\c1ccc([N+](=O)[O-])cc1)c1nc(-c2cc3cc([N+](=O)[O-])ccc3oc2=O)cs1` [CBK262357], the “% of control remaining” value under setting [1] came out at 97.7494.
As for `Cc1nc2c(s1)C[C@@H]1[C@](C)(CO)[C@H](O)CC[C@@]1(C)[C@@H]2CC(=O)O` [CBK289571], the “% of control remaining” value under setting [1] is 112.426.
For `C=Cn1cc(CN2CCC(O)(c3ccccc3C)CC2)c(C)n1` [CBK282580], the “% of control remaining” value under setting [1] amounted to 86.6728.
As to `FC(F)(F)Oc1ccc(-c2cc(NCCc3ccccn3)ncn2)cc1` [CBK037732], the “% of control remaining” value under setting [1] is reported as 100.886.
As for `CCc1csc(CCNc2ccc(-c3nc(C4CC4)no3)cn2)n1` [CBK306608], under setting [1], the “% of control remaining” value is recorded as 82.119.
`O=C(Nc1ccc(OCc2ccccc2)cc1)c1cnc2n(c1=O)CCS2` [CBK287378]: under setting [1], the “% of control remaining” value worked out at 119.931.
Turning to `Cc1ccc(Nc2cc(-c3cccc4oc5ccccc5c34)ncn2)cc1NS(C)(=O)=O` [CBK091150], under setting [1], the “% of control remaining” value worked out at 82.5703.
Consider `CCC(c1ccc(F)cc1F)N1CCN(Cc2nc(C)no2)CC1` (centres unmarked) [CBK304032], for which, under setting [1], the “% of control remaining” value worked out at 45.1187.
Still for that read-out and setting: to `Cc1cc2ccccc2n2c(SCC(=O)Nc3nsc(-c4ccccc4)n3)nnc12` [CBK265673] belongs 105.492.
For the compound `Cc1ccnc(NC(=O)C2CCCN(C(=O)OC(C)(C)C)C2)c1` (centres unmarked) [CBK305875], under setting [1], the “% of control remaining” value is listed as 24.8997.
As for `Cc1sc2nc(N)c(C(=O)NC(C)C)cc2c1C` [CBK269259], the “% of control remaining” value under setting [1] came out at 120.163.
On the same count and under the same terms, to `COc1ccc(C(CC(=O)O)CC(=O)O)cc1OC` [CBK263545] belongs 113.264; to `CNC(=O)CN1C(=O)CC2(C1=O)C(=O)N(C)c1ccc(OC)cc12` (centres unmarked) [CBK075190], 102.902.
Regarding `Cc1ccnc(-n2sc3ccccc3c2=O)n1` [CBK116499], under setting [1], the “% of control remaining” value was 80.9932.
Take `COc1ccc(S(=O)(=O)NCC(=O)O)cc1OC` [CBK034454]: the “% of control remaining” value under setting [1] worked out at 118.076.
Consider `CCc1cccc(CN2CCC(CNC(=O)Nc3ccc(Cl)cc3)CC2)c1` [CBK269151], for which, under setting [1], the “% of control remaining” value is 84.0376.
In the case of `Cc1cccc(C)c1NC(=O)CN1CCN(c2nccnc2OCC2COc3ccccc3O2)CC1` (centres unmarked) [CBK082801T], the “% of control remaining” value under setting [1] was determined as 85.0571.
For the compound `CCC(NS(=O)(=O)c1ccc(OC)cc1)C(=O)O` (centres unmarked) [CBK264509], the “% of control remaining” value under setting [1] is given as 116.92.
Turning to `Cc1cc(C(=O)NCc2ccc(C(=O)O)cc2)no1` [CBK268108], the “% of control remaining” value under setting [1] came to 109.623.
On to `Cn1cc(C(=O)Nc2ccc3c(c2)CN(Cc2ccccc2)C3)cn1` [CBK281838], for which the “% of control remaining” value under setting [1] was 127.852.
On the same count and under the same terms, the result for `CC(CCCC(C)(C)O)NS(=O)(=O)c1ccc(-c2ccon2)s1` (centres unmarked) [CBK062466] reads 87.0333; that for `c1ccc(CCN2CCN(CC3COc4ccccc4O3)CC2)cc1` (centres unmarked) [CBK138342], 90.9566; that for `CCCCn1c(SCC(=O)c2cc(C)n(CCc3ccc(OC)cc3)c2C)n[nH]c1=O` [CBK295351], 113.953.
With `COc1ccccc1NC(=O)C1CN(S(=O)(=O)c2ccccc2)CCN1S(=O)(=O)c1ccccc1` (centres unmarked) [CBK262673], the “% of control remaining” value under setting [1] amounted to 99.6291.
With `CCOC(=O)c1sc(-c2cccc(C)n2)nc1O` [CBK081083], the “% of control remaining” value under setting [1] is 89.4749.
`O=C(c1nc2ccccn2c1CN1CCCC(O)C1)N1CCOCC1` (centres unmarked) [CBK307237]: under setting [1], the “% of control remaining” value turned out to be 66.9993.
Same read-out and setting: to `Cc1cccc(NC(=O)c2ccccc2NS(=O)(=O)c2ccc(F)c(F)c2)c1` [CBK113810] belongs 98.4745; to `COCCn1c(=O)n(CC=C(C)C)c2cccnc21` [CBK283534], 82.6242.
`Cc1ccccc1CNC(=O)CCSc1ccc(Cl)cc1` [CBK264040]: under setting [1], the “% of control remaining” value came out at 119.55.
Still for that read-out and setting: to `O=C(Nc1ccccc1N1CCN(C(=O)c2ccccc2)CC1)c1cccnc1` [CBK269948] belongs 92.3141; to `COc1ccc(Cl)cc1N(CC(=O)Nc1ccccc1C(=O)O)S(C)(=O)=O` [CBK264137], 105.405.
In the case of `Cn1cncc1CN(CCc1ccccc1)Cc1ccncc1` [CBK282992], the “% of control remaining” value under setting [1] was determined as 105.496.
On to `CCOC(=O)c1[nH]c2ccccc2c1NC(=O)c1ccc(Cl)cc1Br` [CBK160140], for which the “% of control remaining” value under setting [1] is 91.6523.
As to `CC1=CC(C)C(C(=O)O)C(C(=O)N2CCN(C)CC2)C1` (centres unmarked) [CBK027311G], the “% of control remaining” value (total inclusion area, 28.5 h, 10 µM, inhibitor) was 95.2068.
On to `CC(=O)Nc1ccc(N2C(=O)CSC23C(=O)Nc2ccccc23)cc1` (centres unmarked) [CBK095916], for which the “% of control remaining” value under setting [1] was 104.658.
For `CCOC(=O)CSC1=NNC(C)(c2c(O)c3ccccc3n(CC)c2=O)N1` (centres unmarked) [CBK009370], under setting [1], the “% of control remaining” value came to 104.946.
Take `CCCCC(c1cccnc1)N(C)C(=O)c1ccnc(-n2cnnc2)c1` (centres unmarked) [CBK306786]: the “% of control remaining” value under setting [1] turned out to be 97.4372.
With `CC(=O)c1cccc(NC(=O)Cn2nc(N3CCSCC3)ccc2=O)c1` [CBK307625], under setting [1], the “% of control remaining” value came out at 55.3447.
The same measure, in the same setting: the result for `Cn1ncc(N2CCC(CNC(=O)COc3cccc(F)c3)C2)cc1=O` (centres unmarked) [CBK307692] reads 48.0091; that for `CN(C)CC(c1ccccc1)c1nnc2n1-c1ccc(S(C)(=O)=O)cc1C(c1ccccc1)=NC2` (centres unmarked) [CBK005856G], 23.948; that for `Cc1nn(CCCC(=O)O)c(C)c1I` [CBK269796], 77.7378.
With `CCn1c(C)nc2cc(NC(=O)CC3CCCCO3)ccc21` (centres unmarked) [CBK281859], the “% of control remaining” value under setting [1] is 78.2534.
Regarding `COc1ccc(CNC(C)C2COc3ccccc3O2)c(OC)c1` (centres unmarked) [CBK074283G], the “% of control remaining” value under setting [1] came out at 82.2981.
On to `CCN(C#N)c1nc(NC)nc(OC)n1` [CBK265697], for which, under setting [1], the “% of control remaining” value worked out at 77.7111.
For `CCC1CCCCN1C(=O)c1ccc(OC)c(OC)c1` (centres unmarked) [CBK084527], the “% of control remaining” value under setting [1] came out at 94.5198.
Turning to `CNC(=O)c1sc2ccccc2c1C1CCN(C(=O)Cc2coc3c(C)c(C)ccc23)C1` (centres unmarked) [CBK285876], the “% of control remaining” value under setting [1] was 107.214.
Still for that read-out and setting: to `Cc1nn(CC(C)C)c(C)c1CCC(=O)NCc1nnc2ccccn12` [CBK305719] belongs 66.0993.
Regarding `O=C(Nc1ccc(N2CCNCC2)c2ccccc12)c1ccccc1` [CBK028412T], under setting [1], the “% of control remaining” value is 81.3917.
As to `Cc1c(Cc2ccccc2)c(-n2ccnc2C)n2c(nc3ccccc32)c1C#N` [CBK263144], the “% of control remaining” value under setting [1] turned out to be 99.8754.
Turning to `COc1cc(/C=C2\S/C(=N/c3ccc(S(N)(=O)=O)cc3)NC2=O)c(Br)cc1O` [CBK265711], the “% of control remaining” value under setting [1] was found to be 147.813.
On the same count and under the same terms, the result for `c1ccc(CN2CC[C@H](c3nnc(-c4cccnc4)o3)C2)cc1` [CBK289397] reads 99.5646.
Consider `COc1ccccc1NC(=O)C(C)N1C(=O)c2ccccc2C1=O` (centres unmarked) [CBK261043], for which the “% of control remaining” value under setting [1] is given as 94.6948.
Consider `COc1ccc(N2C(=O)CC(Nc3cc(C(=O)O)ccc3C)C2=O)c(OC)c1` (centres unmarked) [CBK296650], for which the “% of control remaining” value under setting [1] stood at 102.937.
In the case of `COc1cccc(CC(=O)N2CCC(Cc3cccc(-c4cccs4)c3)(C(N)=O)CC2)c1` [CBK285738], the “% of control remaining” value under setting [1] is on record as 112.082.
Consider `Cc1cc(C(C)(C)C)cc(C)c1S(=O)(=O)NCCSCCN` [CBK013357], for which, under setting [1], the “% of control remaining” value was found to be 66.446.
For `O=C(Nc1ccccc1C(=O)O)c1ccc(-c2ccc(Cl)cc2Cl)o1` [CBK078453], the “% of control remaining” value under setting [1] worked out at 65.1523.
The same measure, in the same setting: to `Cn1ccnc1C1(O)CCN(C(=O)NCc2ccccc2)CC1` [CBK282276] belongs 87.4709.
With `COc1cc(CNCc2cccnc2)cc(Cl)c1OCc1cccs1` [CBK270026C], under setting [1], the “% of control remaining” value is 75.7306.
